B1: ENSG00000070961:be:win_751|CDS|ENSG00000070961|bound_else_gene|NA|bound_elsewhere_windowed (ssRNA)
RNA: GGGAGUUCUACAGUCCGACGAUCAAAAAGUCUUUAGAUAAGGAUCCCUUACUUCUAUCAGGUACUCAUGUAAUGGAAGGCUCUGGAAGAAUGGUAGUUACAGCUGUAGGUGUAAAUUCUCAAACUGGAAUUAUCUUUACCUUACAACAGAGGAUUGAGCAUCA
B2: ENSG00000070961:be:win_4451|3pUTR|ENSG00000070961|bound_else_gene|NA|bound_elsewhere_windowed (ssRNA)
RNA: GGGAGUUCUACAGUCCGACGAUCGUUUUGAAGCAACUGUUUAAUUUUUAAAAUUUUUGAAAACUUGCUAAUAACCUUUUGUUCAGAAUUUAGUAGAUUGUUUAAUGCAGGACAUCAACUACAUAAUGAAAGAUGCUUGAAAUGCAACAGAGGAUUGAGCAUCA
B3: chr7:127373434:127373542:-|CDS|ENSG00000048405|unk|FALSE|unique (ssRNA)
RNA: GGGAGUUCUACAGUCCGACGAUCAAAACAUAGUGAUUCAAAACAUGAUGGCACUUCUAACUCUCCUAGUAAAAAGUAUGAAGUAGCUGACGUCGGUAUUGAAGUAAAAGUCACAAAAAACUUUUCUCUUCACAGAUGCAAUAACAACAGAGGAUUGAGCAUCA
B4: ENSG00000109332:stop:overlap|stop_codon|ENSG00000109332|stop_codon|NA|stop_codon (ssRNA)
RNA: GGGAGUUCUACAGUCCGACGAUCCAGACAGAGAUAAGUACAAUAGGUUAGCAAGAGAGUGGACAGAGAAAUACGCUAUGUUGUAGGGUACAACAGAAUAUCUCGGGAAUGGACUCAGAAGUAUGCCAUGUGAUGCUACCUUAACAACAGAGGAUUGAGCAUCA
B5: ENSG00000151502:stop:overlap|stop_codon|ENSG00000151502|stop_codon|NA|stop_codon (ssRNA)
RNA: GGGAGUUCUACAGUCCGACGAUCCCACCUCCCUGGGUGAGGUGCGGACCCCCAGCCAGCUGUCUGACAACAACUGCAGGCAGUAGGCCCCCAGGGCCGAGAAGAUGCUGGGCACCCACCCAGCACCCCCAUCUACCAACACCACAACAGAGGAUUGAGCAUCA
B6: chr1:154944474:154944574:-|3pUTR|ENSG00000163346|msi1_unk|total|mutant (ssRNA)
RNA: GGGAGUUCUACAGUCCGACGAUCUCGAGGCCCAGCACGAGGACUUACCCUGGGGUUUUGUCCGGUUUGGAAGCAGCUGUCCCCCGGGGGUGAAGUCCCCCCCCUUUUUUUUUUUACCCCUGCUUCUCCCACGGCUUCACCUCCCAACAGAGGAUUGAGCAUCA
B7: chr12:14497711:14497812:+|CDS|ENSG00000171681|unk|FALSE|unique (ssRNA)
RNA: GGGAGUUCUACAGUCCGACGAUCACAGCGUCUGCCCCCAGAAGCUGCCAGCACAUCUCUGCCUCAGAAGCCACACUUGAAGUUAGCACGCGUUCAGAGUCAAAAUGGCAUAGUACUGUCAUGGAGUGUCCUGGAGGUGGAUCGCAACAGAGGAUUGAGCAUCA
B8: ENSG00000124766:be:win_1601|3pUTR|ENSG00000124766|bound_else_gene|NA|bound_elsewhere_windowed (ssRNA)
RNA: GGGAGUUCUACAGUCCGACGAUCCGUUUUGGACCCGCGCUCCCAUCCCCCACCUUCCCGGGCCGGGGACCCACUCUGCCCAGCCGGAGGGACGCGGAGGAGGAAGAGGGUAGACAGGGGCGACCUGUGAUUGUUGUUAUUGAUCAACAGAGGAUUGAGCAUCA
B9: ENSG00000115641:stop:overlap|stop_codon|ENSG00000115641|stop_codon|NA|stop_codon (ssRNA)
RNA: GGGAGUUCUACAGUCCGACGAUCCCAUCGGCUGUGACUGCAAGGUACCUGCUGCGGGCCUCUGCGGGUCCCCGGCGCUCCCCUAGGAAACACGGGUUUCUCUGUGGUUUGUGCUGAAGCCCUGAUCCACCACUGAAGUCUGUCCAACAGAGGAUUGAGCAUCA
B10: chr1:151249111:151249212:+|3pUTR|ENSG00000143398|unk|total|mutant (ssRNA)
RNA: GGGAGUUCUACAGUCCGACGAUCGCAGAUUGUUGAAUUCCUGUUCUAUCCCUUCUCUAUCCCACCCUGCCUUGAUAAUAUGUCCGCCCAUACCCCAAAUAACUGUCUAUAUCCGACACCCCCAGCCAGUUUCUGGCUGCCUGUCAACAGAGGAUUGAGCAUCA
B11: chr15:91915990:91916091:+|CDS|ENSG00000176463|msi1|FALSE|unique (ssRNA)
RNA: GGGAGUUCUACAGUCCGACGAUCGUCCUGACCACCCUGGAGCGUAGGUUCAACCUGCAGAGCGCUGACGUGGGUGUGAUCGCUAGCAGCUUCGAGAUCGGGAACCUGGCGCUCAUCCUCUUCGUGAGCUACUUCGGGGCACGCCAACAGAGGAUUGAGCAUCA
B12: chr20:63933867:63933968:+|3pUTR|ENSG00000101152|msi1|total|mutant (ssRNA)
RNA: GGGAGUUCUACAGUCCGACGAUCAUCAGAGUGGGCCCCUUGCCAGGUGGCUUUUCAGUUACAGAGUCCAGUGGACCAUUUUGCCGAACCAUGCAGCUCCCUGCGGAAGGUGGGGCCGGGUGGGAAAGAGGAGCAGGUCUGGAGCAACAGAGGAUUGAGCAUCA
B13: chr3:186538440:186538695:-|three_prime_utr|ENSG00000213139|control|control|control (ssRNA)
RNA: GGGAGUUCUACAGUCCGACGAUCACAUGAAUGGGGCCAUAUUCUUCCUGGGGCCCAAAUGCUGGCUGGCCUUGUGGUCCAAAUAGGCAUCAUCAAUAAAACAGUUGGCAUGCAUCCCACUGCUGACUAUAAUGCCUCUCCUUACAACAGAGGAUUGAGCAUCA
B14: chr12:50748518:50748596:+|3pUTR|ENSG00000066084|msi1_unk|FALSE|overlapping (ssRNA)
RNA: GGGAGUUCUACAGUCCGACGAUCUCAAAUUCAAACUACAGUACUGUGUAAUUAUGUAUAAAGUUUUUUUAUUUAUUUGAAGUUAGACUAGAUAUACGUUUUUAAAUUUAACAUCUGGCUGGACAGUGUUCUAUUAACUCAUUGCAACAGAGGAUUGAGCAUCA
B15: ENSG00000136451:be:win_2801|3pUTR|ENSG00000136451|bound_else_gene|NA|bound_elsewhere_windowed (ssRNA)
RNA: GGGAGUUCUACAGUCCGACGAUCAGCAAUGAUUAUGCACGUUGAGACAUGUGCUUUUUAUUUCUUAGCAAGAUAUUUUAUCUCUGUACAUAAAGUAGAAACCAAAAGCUAGGGAAACAGAUACUCUUUACACCAUCAUGCCACCAACAGAGGAUUGAGCAUCA
B16: ENSG00000168297:stop:overlap|stop_codon|ENSG00000168297|stop_codon|NA|stop_codon (ssRNA)
RNA: GGGAGUUCUACAGUCCGACGAUCCUGGGGCCAGCUCACCUCUCACGUCCCCGUCAUCGCCAACUCCACCCUCUACAUCAGGUUAGUGAUGGAGUAAAGUGACAUGCCACCUUCCUGUCCGCCAACAGGAGGAGCGGGCUGUGCCAACAGAGGAUUGAGCAUCA
B17: ENSG00000136451:be:win_3151|3pUTR|ENSG00000136451|bound_else_gene|NA|bound_elsewhere_windowed (ssRNA)
RNA: GGGAGUUCUACAGUCCGACGAUCUGAGACAGACUUCCUACAUCAGGGACAGGUAUCUGUGUGUCAUUAUACAAAACAGUUCUAGGGGGUUGAACUACAUAGUAAAAAAAUAAAAUAAAUAGUACUUAGUGUAAAAUAAUUUUACAACAGAGGAUUGAGCAUCA
B18: chr9:116699486:116699595:+|CDS|ENSG00000119401|unk|total|mutant (ssRNA)
RNA: GGGAGUUCUACAGUCCGACGAUCUUCCGCUGCAUUGCUGGCAUGUGUGUGGAUGCUCGUGGUGAUCUCAUCGUGGCUGACAGCCGUCGCAAGGAAAUUCUCCAUUUUCCUAAGGGUGGGGGCUACCGUGUCCUUAUUCGAGAGCAACAGAGGAUUGAGCAUCA
B19: chr3:25596636:25596694:+|3pUTR|ENSG00000077092|msi1_unk|total|mutant (ssRNA)
RNA: GGGAGUUCUACAGUCCGACGAUCUCCCCAGUACCUUCAGUUCCAGGAUUUAAAAUGCAAGAAAAAACAUUUUUACUGCUGCUCCGUUUUUGGACUGAAAAGAUAUUAAAACUCAAGAAGGACCAAGAAGUUUUCAUAUGUAUCCAACAGAGGAUUGAGCAUCA
B20: chr3:50258797:50258898:+|3pUTR|ENSG00000114353|msi1|FALSE|unique (ssRNA)
RNA: GGGAGUUCUACAGUCCGACGAUCGCACAAGAAGCGUGAGACGCCACCAUUCCUGGAAACCACAGUCCACCUGCUCAUUCUCGUAGCUUUUUAAAAAAAUGAAAGUAAAGGAAAAAAAAAAAACUGCAAAUCUAGAAAACUUUUCAACAGAGGAUUGAGCAUCA
B21: chr5:136975339:136975545:-|3pUTR|ENSG00000152377|msi1|FALSE|unique (ssRNA)
RNA: GGGAGUUCUACAGUCCGACGAUCAGAGCCCAUCAAAUCCUGAGUGUCAGUUUGUUGUCCCUAUUGUAGAUGAAAUAGUGAUGUAGCAAAAACCUAGUAAAUUCUGAAUGCUUUUCCACGUAGACUUAUCUGGAAUGUGAACACCAACAGAGGAUUGAGCAUCA
B22: chr17:67854386:67854487:+|CDS|ENSG00000171634|unk|total|mutant (ssRNA)
RNA: GGGAGUUCUACAGUCCGACGAUCAGAGGCAGAGGACUACCCAUAUGGACCAGCCGAGAACAAGAUCAAAGUUCUACAGUUUCCCGUCGAUCAGUUUCUUACAACAAAUAUUGCUCGAGAGGAAUUGAUGUCUGAAGGGGUGAUCAACAGAGGAUUGAGCAUCA

The list shows a part of the results.

The assay deals with MSI1 full-length (mouse, UniProt Q61474 1-362). In words: nsRBNS (natural sequence RNA bind-n-seq); RBNS binding buffer (assumed for nsRBNS): 25 mM Tris pH 7.5, 150 mM KCl, 3 mM MgCl2, 0.01% Triton X-100, 500 ug/ml BSA, 20 U/ml SUPERase-In, 4 C; UNK is unkempt and MSI1 is Musashi-1; names of the RNAs are library labels; protein concentration not given here; high values mean tight binding.
Sequence of UniProt Q61474 (Q61474 whole entry): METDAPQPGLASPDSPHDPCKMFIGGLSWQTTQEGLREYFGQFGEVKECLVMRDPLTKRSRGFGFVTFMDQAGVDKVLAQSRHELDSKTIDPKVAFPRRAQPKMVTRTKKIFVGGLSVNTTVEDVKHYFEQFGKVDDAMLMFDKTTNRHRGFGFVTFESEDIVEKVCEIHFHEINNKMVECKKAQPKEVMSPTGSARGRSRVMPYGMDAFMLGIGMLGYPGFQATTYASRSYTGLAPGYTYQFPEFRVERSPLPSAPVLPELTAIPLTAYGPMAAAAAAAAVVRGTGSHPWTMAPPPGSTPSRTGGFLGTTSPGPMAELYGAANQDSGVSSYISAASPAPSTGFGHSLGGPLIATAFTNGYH
Turning to B1, the binding signal came out at 0.769 enrichment R.

B2 came in with a binding signal of 0.619 enrichment R. B3 returned a binding signal of 0.903 enrichment R. Turning to B4, the binding signal came out at 2.05 enrichment R. As for B5, the binding signal came out at 1.77 enrichment R. With B6 the figure was 0.714 enrichment R; with B7, 0.586 enrichment R; with B8, 0.493 enrichment R. The molecule B9 yielded a binding signal of 0.456 enrichment R. With B10 the figure was 0.992 enrichment R. B11 showed a binding signal of 0.519 enrichment R.

In turn, B12 had a binding signal of 0.606 enrichment R. B13: the binding signal was determined as 0.434 enrichment R. B14 registered a binding signal of 5.2 enrichment R. The figure for B15 is 1.38 enrichment R; for B16 it is 0.824 enrichment R; for B17 it is 15.5 enrichment R. As to B18, the binding signal was determined as 0.489 enrichment R. B19: the binding signal came out at 0.344 enrichment R. For the molecule B20, the binding signal came to 1.04 enrichment R.

As for B21, the binding signal came to 11.5 enrichment R.

Regarding B22, the binding signal was found to be 0.394 enrichment R.

Source of the values: publication PMC12136788.
